# In the supplement of paper PMC8728848:
# Some of the results follow.
# Tests used:
# Experiment in all cases: glycan array binding signal (z-score within array); higher = stronger binding
# Details in all cases: glycan notation: IUPAC condensed, linker removed
# [1] = molecular target: GlcNAc(b1-2)[GlcNAc(b1-4)]Man(a1-3)[GlcNAc(b1-4)][GlcNAc(b1-2)[GlcNAc(b1-6)]Man(a1-6)]Man(b1-4)GlcNAc(b1-4)GlcNAc
# Procedure, shortened: (§1)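 The Consortium for Functional Glycomics database supplied 3228 glycan arrays, of which those lacking an available protein sequence were dropped. The binding signal, a within-array Z-score, was averaged across arrays of the same protein sequence and across linkers. Negative scores can be read as non-binding.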
# [2] = molecular target: GlcNAc(b1-2)[GlcNAc(b1-4)]Man(a1-3)[GlcNAc(b1-4)][GlcNAc(b1-2)[GlcNAc(b1-6)]Man(a1-6)]Man(b1-4)GlcNAc(b1-4)[Fuc(a1-6)]GlcNAc
# Procedure, shortened: as §1
# [3] = molecular target: GlcNAc(b1-2)[GlcNAc(b1-6)]Man(a1-6)[GlcNAc(b1-2)Man(a1-3)]Man(b1-4)GlcNAc(b1-4)GlcNAc
# Procedure, shortened: as §1
# [4] = molecular target: GlcNAc(b1-2)[GlcNAc(b1-6)]Man(a1-6)[GlcNAc(b1-2)Man(a1-3)]Man(b1-4)GlcNAc(b1-4)[Fuc(a1-6)]GlcNAc
# Procedure, shortened: as §1
# [5] = molecular target: GlcNAc(b1-2)[GlcNAc(b1-6)]Man(a1-6)[GlcNAc(b1-4)][GlcNAc(b1-2)Man(a1-3)]Man(b1-4)GlcNAc(b1-4)GlcNAc
# Procedure, shortened: as §1
# GlcNAc(b1-3)Fuc = molecular target: GlcNAc(b1-3)Fuc
# Procedure, shortened: as §1
# GlcNAc(b1-3)Gal = molecular target: GlcNAc(b1-3)Gal
# Procedure, shortened: as §1
# [6] = molecular target: GlcNAc(b1-3)Gal(b1-3)GalNAc
# Procedure, shortened: as §1
# GlcNAc(b1-3)Gal(b1-4)Glc = molecular target: GlcNAc(b1-3)Gal(b1-4)Glc
# Procedure, shortened: as §1
# [7] = molecular target: GlcNAc(b1-3)Gal(b1-4)GlcNAc
# Procedure, shortened: as §1
# [8] = molecular target: GlcNAc(b1-3)Gal(b1-4)GlcNAc(b1-2)Man(a1-3)[GlcNAc(b1-3)Gal(b1-4)GlcNAc(b1-2)Man(a1-6)]Man(b1-4)GlcNAc(b1-4)GlcNAc
# Procedure, shortened: as §1
# [9] = molecular target: GlcNAc(b1-3)Gal(b1-4)GlcNAc(b1-2)Man(a1-3)[GlcNAc(b1-3)Gal(b1-4)GlcNAc(b1-2)Man(a1-6)]Man(b1-4)GlcNAc(b1-4)[Fuc(a1-6)]GlcNAc
# Procedure, shortened: as §1
# [10] = molecular target: GlcNAc(b1-3)Gal(b1-4)GlcNAc(b1-2)[GlcNAc(b1-3)Gal(b1-4)GlcNAc(b1-6)]Man(a1-6)[GlcNAc(b1-3)Gal(b1-4)GlcNAc(b1-2)Man(a1-3)]Man(b1-4)GlcNAc(b1-4)GlcNAc
# Procedure, shortened: as §1
# [11] = molecular target: GlcNAc(b1-3)Gal(b1-4)GlcNAc(b1-3)Gal(b1-4)GlcNAc
# Procedure, shortened: as §1
# [12] = molecular target: GlcNAc(b1-3)Gal(b1-4)GlcNAc(b1-3)Gal(b1-4)GlcNAc(b1-2)Man(a1-3)[GlcNAc(b1-3)Gal(b1-4)GlcNAc(b1-3)Gal(b1-4)GlcNAc(b1-2)Man(a1-6)]Man(b1-4)GlcNAc(b1-4)GlcNAc
# Procedure, shortened: as §1
# [13] = molecular target: GlcNAc(b1-3)Gal(b1-4)GlcNAc(b1-3)Gal(b1-4)GlcNAc(b1-2)Man(a1-3)[GlcNAc(b1-3)Gal(b1-4)GlcNAc(b1-3)Gal(b1-4)GlcNAc(b1-2)Man(a1-6)]Man(b1-4)GlcNAc(b1-4)[Fuc(a1-6)]GlcNAc
# Procedure, shortened: as §1
# [14] = molecular target: GlcNAc(b1-3)Gal(b1-4)GlcNAc(b1-3)Gal(b1-4)GlcNAc(b1-2)[GlcNAc(b1-3)Gal(b1-4)GlcNAc(b1-3)Gal(b1-4)GlcNAc(b1-6)]Man(a1-6)[GlcNAc(b1-3)Gal(b1-4)GlcNAc(b1-3)Gal(b1-4)GlcNAc(b1-2)Man(a1-3)]Man(b1-4)GlcNAc(b1-4)[Fuc(a1-6)]GlcNAc
# Procedure, shortened: as §1
# [15] = molecular target: GlcNAc(b1-3)Gal(b1-4)GlcNAc(b1-3)Gal(b1-4)GlcNAc(b1-3)Gal(b1-4)GlcNAc(b1-2)Man(a1-3)[GlcNAc(b1-3)Gal(b1-4)GlcNAc(b1-3)Gal(b1-4)GlcNAc(b1-3)Gal(b1-4)GlcNAc(b1-2)Man(a1-6)]Man(b1-4)GlcNAc(b1-4)GlcNAc
# Procedure, shortened: as §1
# [16] = molecular target: GlcNAc(b1-3)Gal(b1-4)GlcNAc(b1-3)Gal(b1-4)GlcNAc(b1-3)Gal(b1-4)GlcNAc(b1-2)Man(a1-3)[GlcNAc(b1-3)Gal(b1-4)GlcNAc(b1-3)Gal(b1-4)GlcNAc(b1-3)Gal(b1-4)GlcNAc(b1-2)Man(a1-6)]Man(b1-4)GlcNAc(b1-4)[Fuc(a1-6)]GlcNAc
# Procedure, shortened: as §1
# [17] = molecular target: GlcNAc(b1-3)Gal(b1-4)GlcNAc(b1-3)Gal(b1-4)GlcNAc(b1-3)Gal(b1-4)GlcNAc(b1-2)[GlcNAc(b1-3)Gal(b1-4)GlcNAc(b1-3)Gal(b1-4)GlcNAc(b1-3)Gal(b1-4)GlcNAc(b1-6)]Man(a1-6)[GlcNAc(b1-3)Gal(b1-4)GlcNAc(b1-3)Gal(b1-4)GlcNAc(b1-3)Gal(b1-4)GlcNAc(b1-2)Man(a1-3)]Man(b1-4)GlcNAc(b1-4)[Fuc(a1-6)]GlcNAc
# Procedure, shortened: as §1
# [18] = molecular target: GlcNAc(b1-3)Gal(b1-4)GlcNAc(b1-3)Gal(b1-4)GlcNAc(b1-3)Gal(b1-4)GlcNAc(b1-3)Gal(b1-4)GlcNAc(b1-2)Man(a1-3)[GlcNAc(b1-3)Gal(b1-4)GlcNAc(b1-3)Gal(b1-4)GlcNAc(b1-3)Gal(b1-4)GlcNAc(b1-3)Gal(b1-4)GlcNAc(b1-2)Man(a1-6)]Man(b1-4)GlcNAc(b1-4)GlcNAc
# Procedure, shortened: as §1
# [19] = molecular target: GlcNAc(b1-3)Gal(b1-4)GlcNAc(b1-3)Gal(b1-4)GlcNAc(b1-3)Gal(b1-4)GlcNAc(b1-3)Gal(b1-4)GlcNAc(b1-2)Man(a1-3)[GlcNAc(b1-3)Gal(b1-4)GlcNAc(b1-3)Gal(b1-4)GlcNAc(b1-3)Gal(b1-4)GlcNAc(b1-3)Gal(b1-4)GlcNAc(b1-2)Man(a1-6)]Man(b1-4)GlcNAc(b1-4)[Fuc(a1-6)]GlcNAc
# Procedure, shortened: as §1
# [20] = molecular target: GlcNAc(b1-3)Gal(b1-4)GlcNAc(b1-3)Gal(b1-4)GlcNAc(b1-3)Gal(b1-4)GlcNAc(b1-3)Gal(b1-4)GlcNAc(b1-2)[GlcNAc(b1-3)Gal(b1-4)GlcNAc(b1-3)Gal(b1-4)GlcNAc(b1-3)Gal(b1-4)GlcNAc(b1-3)Gal(b1-4)GlcNAc(b1-6)]Man(a1-6)[GlcNAc(b1-3)Gal(b1-4)GlcNAc(b1-3)Gal(b1-4)GlcNAc(b1-3)Gal(b1-4)GlcNAc(b1-3)Gal(b1-4)GlcNAc(b1-2)Man(a1-3)]Man(b1-4)GlcNAc(b1-4)[Fuc(a1-6)]GlcNAc
# Procedure, shortened: as §1
# [21] = molecular target: GlcNAc(b1-3)Gal(b1-4)GlcNAc(b1-3)Gal(b1-4)GlcNAc(b1-3)GalNAc
# Procedure, shortened: as §1
# [22] = molecular target: GlcNAc(b1-3)Gal(b1-4)GlcNAc(b1-3)GalNAc
# Procedure, shortened: as §1
# [23] = molecular target: GlcNAc(b1-3)Gal(b1-4)GlcNAc(b1-3)[GlcNAc(b1-3)Gal(b1-4)GlcNAc(b1-3)]GalNAc
# Procedure, shortened: as §1
# [24] = molecular target: GlcNAc(b1-3)Gal(b1-4)GlcNAc(b1-6)[Gal(b1-3)]GalNAc
# Procedure, shortened: as §1
# [25] = molecular target: GlcNAc(b1-3)Gal(b1-4)GlcNAc(b1-6)[GlcNAc(b1-3)Gal(b1-3)]GalNAc
# Procedure, shortened: as §1
# [26] = molecular target: GlcNAc(b1-3)Gal(b1-4)GlcNAc(b1-6)[GlcNAc(b1-3)]Gal(b1-4)GlcNAc
# Procedure, shortened: as §1
# GlcNAc(b1-3)GalNAc = molecular target: GlcNAc(b1-3)GalNAc
# Procedure, shortened: as §1
# GlcNAc(b1-3)Man = molecular target: GlcNAc(b1-3)Man
# Procedure, shortened: as §1
# [27] = molecular target: GlcNAc(b1-3)[GlcNAc(b1-4)][GlcNAc(b1-6)]GlcNAc
# Procedure, shortened: as §1
# [28] = molecular target: GlcNAc(b1-3)[GlcNAc(b1-6)]Gal(b1-4)GlcNAc
# Procedure, shortened: as §1
# [29] = molecular target: GlcNAc(b1-3)[GlcNAc(b1-6)]GalNAc
# Procedure, shortened: as §1
# [30] = molecular target: GlcNAc(b1-4)Gal(b1-4)GlcNAc
# Procedure, shortened: as §1
# GlcNAc(b1-4)GlcNAc = molecular target: GlcNAc(b1-4)GlcNAc
# Procedure, shortened: as §1
# [31] = molecular target: GlcNAc(b1-4)GlcNAc(b1-4)GlcNAc
# Procedure, shortened: as §1
# [32] = molecular target: GlcNAc(b1-4)GlcNAc(b1-4)GlcNAc(b1-4)GlcNAc(b1-4)GlcNAc
# Procedure, shortened: as §1
binder,measurement,setting,value
B160 (Bifidobacterium sp) (protein) MVSHNKRIVAALAAVAAMGIGLAGCGGSDTAGDTKSGSDGGVVNITYMHRLPDSEGMTLVNDIVAKWNKEHPNIQVKATKFDGNAADMIKKLETDVKAGNAPDLAQVGYAEVPEVFTKGLLQDVTDEAAKYKDDFASGPFALMQVDGKTYGLPQDTGPLTYFYNAAEFEKLGITVPKTADELIETAKKTAAQGKYIMTFTPDEAMMMMSGQAGASGPWYKVDGNSWVVNTQTKGSKAVADVYQQLIDNKAALTNPRWDASFDNSIQSGQLIGTVAAAWEAPLFIDSAGGTGAGEWKVTQLGDWFGNGTKTGANGGSGVAVLKGSKHPAEAMEFLDWFNTQVDDLVSQGLVVAATTADAKTPQKWSDYFSGQDVMAEFKTANDNMGDFTYMPGFSAVGAAMKQTAAKAADGSAKVSDVFDTAQKTSVDTLKNLGLSVKE,glycan array binding signal (z-score),[1],-0.176
same,glycan array binding signal (z-score),[2],-0.18
same,glycan array binding signal (z-score),[3],-0.166
same,glycan array binding signal (z-score),[4],-0.112
same,glycan array binding signal (z-score),[5],-0.149
same,glycan array binding signal (z-score),GlcNAc(b1-3)Fuc,-0.132
same,glycan array binding signal (z-score),GlcNAc(b1-3)Gal,-0.153
same,glycan array binding signal (z-score),[6],-0.171
same,glycan array binding signal (z-score),GlcNAc(b1-3)Gal(b1-4)Glc,-0.17
same,glycan array binding signal (z-score),[7],-0.175
same,glycan array binding signal (z-score),[8],-0.174
same,glycan array binding signal (z-score),[9],-0.081
same,glycan array binding signal (z-score),[10],-0.158
same,glycan array binding signal (z-score),[11],-0.139
same,glycan array binding signal (z-score),[12],-0.131
same,glycan array binding signal (z-score),[13],-0.139
same,glycan array binding signal (z-score),[14],-0.12
same,glycan array binding signal (z-score),[15],-0.179
same,glycan array binding signal (z-score),[16],-0.139
same,glycan array binding signal (z-score),[17],-0.094
same,glycan array binding signal (z-score),[18],-0.149
same,glycan array binding signal (z-score),[19],-0.164
same,glycan array binding signal (z-score),[20],-0.174
same,glycan array binding signal (z-score),[21],-0.158
same,glycan array binding signal (z-score),[22],-0.17
same,glycan array binding signal (z-score),[23],-0.134
same,glycan array binding signal (z-score),[24],-0.145
same,glycan array binding signal (z-score),[25],-0.164
same,glycan array binding signal (z-score),[26],-0.173
same,glycan array binding signal (z-score),GlcNAc(b1-3)GalNAc,-0.154
same,glycan array binding signal (z-score),GlcNAc(b1-3)Man,-0.156
same,glycan array binding signal (z-score),[27],-0.174
same,glycan array binding signal (z-score),[28],-0.156
same,glycan array binding signal (z-score),[29],-0.163
same,glycan array binding signal (z-score),[30],-0.161
same,glycan array binding signal (z-score),GlcNAc(b1-4)GlcNAc,-0.184
same,glycan array binding signal (z-score),[31],-0.167
same,glycan array binding signal (z-score),[32],-0.164
